Sequences with one replicate were seen in a single cluster, so their values are uncertain.
System: ATP
Test: switch fluorescence ratio, 500 uM ATP over buffer (Cy3 cluster intensity, sum of 5 cycles each) (fold (ratio)); higher = stronger signal-on switching upon ATP binding; sequences stand for … in TCGTCGGCAGCGTCAGATGTGTATAAGAGACAGTTTTTTTTTTTTTTTTTTTTTTTTT…TC
Details: aptamer strand: ATP DNA aptamer (quencher-CACCTGGGGGAGTATTGCGGAGGAAGG + anchor), 100 nM annealed; ATP concentration: 500 uM; one replicate
Procedure, shortened: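 Clusters with intensities outside 100-1000 RFU were excluded. The remaining Cy3-labelled switching-strand clusters on a modified Illumina MiSeq flow-cell had been annealed to 100 nM quencher-labelled ATP aptamer and imaged in selection buffer, then after 15 min with 500 uM ATP at 22 °C, for five cycles separated by NaOH stripping and re-annealing. The fluorescence ratio, averaged per switch-domain sequence, is each cluster's summed target-cycle Cy3 intensity over its summed buffer-cycle Cy3 intensity.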
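Also: ATP exposure 15 min at 22 °C before imaging.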

| Sequence | switch fluorescence ratio |
| --- | --- |
| TACTCGATGG | 0.987 |
| CGGGTGTTC | 1.04 |
| GACACAGGTC | 1.12 |
| AAATGTGACT | 0.997 |
| ATAACGAGAT | 1.04 |
| ACGTGGGCTC | 1.03 |
| GAACGAATG | 0.979 |
| GCAGAACACT | 1 |
| TCACACCG | 1.03 |
| CAGGTTGCGA | 1.01 |
| TTGTAGGTTG | 0.97 |
| GTTGCAAGTT | 0.963 |
| AGGGAAGTAC | 1.16 |
| ATCGGTGTA | 0.987 |
| TAGCGTTAAA | 1.03 |
| CTACAGGCT | 1 |
| GTATTAGCGG | 0.97 |
| AGTTGCTGTG | 1.01 |
| ACCCCGAGGG | 1.02 |
| GGAAGTATCA | 0.983 |
| AATGAAATC | 1.03 |
| AATTATGGTC | 0.957 |
| CGCGATGCCA | 1.1 |
| AACAGTCTT | 1.02 |
| GAGAGGTACG | 1.02 |
| TCCAATCCTT | 1.03 |

| Sequence | switch fluorescence ratio |
| --- | --- |
| ACTGAAGCGC | 1.06 |
| ATCGTTCTCG | 1.02 |
| ACAGAAGACC | 1.03 |
| GAAACCTTCT | 2.64 |
| ATACAGCATT | 1.07 |
| TTTGCCTCTG | 1 |
| TCCATCGACC | 1.09 |
| TATGGTATTA | 0.955 |
| TTAGACCCG | 1.06 |
| GGTCAAATT | 1.01 |
| GGTTTCAGGA | 1 |
| GGCTCCTGGC | 1 |
| CACGATACCG | 1.19 |
| TCCAACAGCT | 1.16 |
| TGGAGGAGAA | 1.01 |
| GTATACTGAT | 0.993 |
| TTGTATGCCC | 0.989 |
| AAGGCACACG | 1.02 |
| ATCTTGGGA | 1.02 |
| GCATGATCGG | 0.977 |
| ATGCATTGG | 1.02 |
| CCCGGGCGGA | 1.02 |
| AAGGATCACG | 1.05 |
| CATTGCTTGT | 0.986 |
| ATTGGGTGCT | 1.04 |
| GAGTATTACG | 1.07 |

| Sequence | switch fluorescence ratio |
| --- | --- |
| GCTCGGGAAA | 1.05 |
| TGTACTCGAA | 1.29 |
| AGCGGCAAAT | 0.993 |
| AATCAACAAA | 0.971 |
| TTGGTCATCG | 1.05 |
| GACGGAGTGG | 0.987 |
| TGAAGATCTT | 0.974 |
| GTCTATGCGC | 1.01 |
| AAAATAATCG | 1.02 |
| AGTGGAGGAG | 1.01 |
| GTGCGCGGGG | 1.06 |
| CGTACAACGG | 0.983 |
| GATTGGGCG | 0.987 |
| GCGTGATTGG | 1.01 |
| GCCTTGGATC | 0.997 |
| CTTTCATCTG | 1.05 |
| CCTCTCTGGG | 0.993 |
| TTAGACTGGT | 1.02 |
| ACACCCCGAT | 1.2 |
| TGACCGCCTG | 1.03 |
| CTCCTACCCC | 1.42 |
| TCTGTGTCGT | 1.03 |
| GAATGCGATT | 0.996 |
| GGCAATGG | 1.87 |
| TGACAAGGGT | 0.975 |
| TCTCTGTAAT | 5.74 |

| Sequence | switch fluorescence ratio |
| --- | --- |
| ACGTTCTTGA | 0.976 |
| AACTCTGGGC | 1.02 |
| AGACATTTAT | 1 |
| ACGAATACTC | 3.42 |
| ATGGCAAAT | 1.02 |
| AAGGAACACG | 1.01 |
| CCGTGCAGGT | 1.2 |
| AATAGCAAGG | 1.04 |
| TCAGTCCAGT | 1 |
| CAAGCACAA | 1.24 |
| CACCCTTCGC | 2.4 |
| CAGCAAACA | 1.32 |
| GCATGGTAGT | 1.03 |
| TAGACGCATA | 2.77 |
| CTAGATGGC | 1.15 |
| CGGCTGCCGC | 1.05 |
| AGACCAAAG | 1 |
| TTTGGAAGAC | 0.988 |
| TTGAGTAAGG | 1.02 |
| TCGCTTTCGG | 1.01 |
| CACTGTAGTT | 1.19 |
| TCAGTTGCCT | 0.986 |
| TTATAGGCTT | 0.961 |
| TTTAACGTTC | 0.963 |
| GTCATGTCGC | 1.01 |
| AACTAGACGC | 1.19 |

| Sequence | switch fluorescence ratio |
| --- | --- |
| GAAGCCGTAT | 1.02 |
| GGGGCAGCAA | 1.53 |
| GAAATTAGGT | 1.01 |
| TACTCGGGGG | 1.21 |
| ACCAGAGCTT | 1.07 |
| TCTATGTGCT | 0.967 |
| TAGTACTGAA | 1.02 |
| TACAACTAAA | 1.03 |
| GCCGAAGATT | 1.01 |
| CCTGTTTCAT | 1.02 |
| ACAGCGGCGG | 0.971 |
| AATCGGTTAC | 1.04 |
| AGTGTAGTCG | 0.938 |
| CTCATCTCAT | 1.01 |
| GACTAAGAAG | 0.967 |
| TCCTCATCTT | 1.05 |
| AAAGCCCCGC | 1.01 |
| GGGGCCGCT | 0.943 |
| ATGCGGGTTG | 1.04 |
| AGCTGTGTTT | 0.976 |
| TTGGTTTCAG | 0.974 |
| CAACAACTTT | 0.99 |
| TAATCTTTGA | 0.988 |
| TAGGTGGTAG | 1.01 |
| TATTAAGGGG | 1.03 |
| TAATAAACAG | 1.04 |

| Sequence | switch fluorescence ratio |
| --- | --- |
| TTTCTGGTGT | 1.04 |
| AGGACACGGA | 1.04 |
| GAGGTCTAAT | 1.01 |
| TTACTGTTTT | 0.969 |
| GCACGTATTG | 1.1 |
| GGTGCATAGA | 0.982 |
| TAATATATTA | 0.959 |
| GTTCAAGCTC | 0.998 |
| GTCTGTGTTC | 0.987 |
| GCGGTTCCGT | 1.04 |
| TTGCGGGAAG | 1.04 |
| CTGTTCCAGA | 1.02 |
| AAAGCGCGCC | 0.995 |
| CTGAACAAA | 1.02 |
| GTAATGCGGT | 1.01 |
| GAAAGGCTCA | 1 |
| GGAGGTGAAT | 1.05 |
| GCAACAGGTT | 1.09 |
| GCCGTAATAA | 3.51 |
| CCCGGATGTT | 1.05 |
| CCAAGTACGC | 1.51 |
| TTATGGTAAA | 1 |
| TGTTCGGGCC | 1.01 |
| CTCAGTATGC | 1.18 |
| CCGGCCCAGC | 1.21 |
| TGAGGGTAGG | 0.974 |

| Sequence | switch fluorescence ratio |
| --- | --- |
| CGGATCGGGA | 0.966 |
| TTCTTCCTAT | 1.05 |
| CTTATAGAAG | 0.98 |
| TAGCACTTGG | 0.993 |
| TCGAGGACGT | 1.05 |
| GGATCACTGC | 1.01 |
| CGGAGAGCTC | 1.12 |
| TTATCTTCGG | 0.968 |
| CCTGCTTTGT | 0.983 |
| CAAGCAGCCA | 0.994 |
| GAGGGCACAA | 1.06 |
| GCTGGTTAAG | 1.03 |
| CAGGTATTAT | 0.997 |
| AAGAAAAGGC | 1.14 |
| TAATTACGAT | 1.03 |
| ACTTCACGTT | 1.23 |
| CTGCTAAGCA | 1.05 |
| CTGGAGATGG | 1.02 |
| AGCGTAGTCT | 1.05 |
| GGTTATGTAG | 0.986 |
| ACTGCCCACG | 1.2 |
| CGCTGCGGAC | 2.78 |
| GTGAGGTATG | 0.972 |
| TACGTACCAC | 1.67 |
| ATTCAGATC | 0.964 |
| GTGTGATACT | 1.11 |

| Sequence | switch fluorescence ratio |
| --- | --- |
| ATGACAATA | 0.963 |
| GAGGAAAGAG | 1.01 |
| CGCTCTACAG | 1.02 |
| GAGTGGAGTT | 1.01 |
| AATACTTAGA | 1.04 |
| GATATATTAG | 1 |
| AGACGTGGTC | 0.961 |
| GGCATACATG | 1.02 |
| TATCTGTGCA | 0.993 |
| CCACGGGCTT | 1.06 |
| GGCGTAAAGC | 1.04 |
| AGCATTACAT | 1.12 |
| TTGGACACT | 1.01 |
| ACGAGTGTGC | 0.983 |
| ACTTGAACA | 1.02 |
| TGCACGTAGG | 1.04 |
| ACCATATTCG | 1.33 |
| AAAATGATGT | 0.981 |
| TTCGTGGACA | 0.957 |
